Experimental data taken from PMC11513070.
These are yes or no findings as the source states them, for the method shown. Binding seen in cells or lysates may run through a third protein. Some entries that bind do so weakly or less than the wild type. Sequences can lack the tags named with a protein.

Experiments:
SPPL2a-3xFLAG = biological target: T1, SPPL2a-3xFLAG (UniProt Q9JJF9); assay: co-IP; 3xFLAG-tagged SPP/SPPL protease precipitated with anti-FLAG beads from lysates of transiently transfected HEK293T cells; western blot for endogenous calnexin
T1 sequence (chain, N-glycosylated in the N-terminus (sites not printed)): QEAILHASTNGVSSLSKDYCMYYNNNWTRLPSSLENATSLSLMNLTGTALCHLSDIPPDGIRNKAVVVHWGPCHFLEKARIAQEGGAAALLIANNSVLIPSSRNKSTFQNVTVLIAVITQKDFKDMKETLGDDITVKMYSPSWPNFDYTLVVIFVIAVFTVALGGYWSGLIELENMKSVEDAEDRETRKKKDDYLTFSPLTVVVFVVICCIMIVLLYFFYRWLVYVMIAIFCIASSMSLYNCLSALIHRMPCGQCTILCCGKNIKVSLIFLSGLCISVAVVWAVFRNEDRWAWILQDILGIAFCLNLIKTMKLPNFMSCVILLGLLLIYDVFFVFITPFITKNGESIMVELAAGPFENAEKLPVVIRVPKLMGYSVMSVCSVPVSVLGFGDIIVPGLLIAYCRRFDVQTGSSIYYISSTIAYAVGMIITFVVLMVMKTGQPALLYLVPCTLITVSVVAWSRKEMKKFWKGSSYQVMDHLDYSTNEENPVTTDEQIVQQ

[1] = substrate: T2, SPP N10/20A-myc (murine, glycosylation-deficient) (mouse) (UniProt Q9D8V0); assay: co-IP; myc-tagged protease variant precipitated with anti-SPPL2c (C-terminus or 3B epitope) or anti-SPP sepharose beads from lysates (0.5% DDM) of transiently transfected HEK293T cells, overnight at 4 °C; western blot for endogenous calnexin
T2 sequence: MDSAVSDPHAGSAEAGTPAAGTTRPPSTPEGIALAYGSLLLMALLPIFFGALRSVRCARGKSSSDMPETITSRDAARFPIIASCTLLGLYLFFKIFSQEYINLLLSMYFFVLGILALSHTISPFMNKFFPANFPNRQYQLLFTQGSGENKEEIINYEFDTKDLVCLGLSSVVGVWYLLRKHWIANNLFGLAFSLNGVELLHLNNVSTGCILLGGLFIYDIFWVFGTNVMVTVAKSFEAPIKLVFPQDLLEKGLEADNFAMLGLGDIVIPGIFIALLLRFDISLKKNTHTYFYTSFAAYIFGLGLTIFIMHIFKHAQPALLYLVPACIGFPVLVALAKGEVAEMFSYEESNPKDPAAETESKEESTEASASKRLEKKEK

B1: calnexin, endogenous in HEK293T cells (protein, UniProt P27824 21-592)
chain: HDGHDDDVIDIEDDLDDVIEEVEDSKPDTTAPPSSPKVTYKAPVPTGEVYFADSFDRGTLSGWILSKAKKDDTDDEIAKYDGKWEVEEMKESKLPGDKGLVLMSRAKHHAISAKLNKPFLFDTKPLIVQYEVNFQNGIECGGAYVKLLSKTPELNLDQFHDKTPYTIMFGPDKCGEDYKLHFIFRHKNPKTGIYEEKHAKRPDADLKTYFTDKKTHLYTLILNPDNSFEILVDQSVVNSGNLLNDMTPPVNPSREIEDPEDRKPEDWDERPKIPDPEAVKPDDWDEDAPAKIPDEEATKPEGWLDDEPEYVPDPDAEKPEDWDEDMDGEWEAPQIANPRCESAPGCGVWQRPVIDNPNYKGKWKPPMIDNPSYQGIWKPRKIPNPDFFEDLEPFRMTPFSAIGLELWSMTSDIFFDNFIICADRRIVDDWANDGWGLKKAADGAAEPGVVGQMIEAAEERPWLWVVYILTVALPVFLVILFCCSGKKQTSGMEYKKTDAPQPDVKEEEEEKEEEKDKGDEEEEGEEKLEEKQKSDAEEDGGTVSQEEEDRKPKAEEDEILNRSPRNRKPRRE
With B1 the binding (SPPL2a-3xFLAG) was “binds” and the binding [1] was “no binding”.
